The source of these data is the supplement of paper PMC11417369.

± gives the standard deviation of the averaged measurements. Some of the results follow.

The subject of this assay is PfAP2-I AP2 domain 3 (GST-tagged). The assay is described as follows: gcPBM binding intensity (ln(normalized median fluorescence intensity)); higher = stronger DNA binding. In outline:
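GST-fused DNA-binding domains of P. falciparum, expressed in E. coli, were applied at about 25 μg on average for 1 h to an Agilent 4 × 180k array of primer-extended double-stranded 36-bp intergenic genomic probes and negative controls. Binding intensity is the highest Masliner-normalised natural-log median intensity across replicate spots of either probe orientation, measured with Alexa488 anti-GST antibody and a 488 nm scan.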
In the case of “TTTTTTTTTTTTATATGTACTAATAATCTTTTTTTT [XGTACX_site3552]”, the “gcPBM binding intensity (ln)” value amounted to 7.96 ± 0.71. The figure for “GCTGAAAGGATAAAGGTGCATATTTTTTAAAAAATT [GTGCAC_site9487]” is 10.4 ± 0.28; for “AATATTTTATATGTAGTGCATTACTATAGGATTTAT [GTGCAC_site9424]” it is 11.4 ± 0.74; for “ACAAAATAAACGGCTGCACACAAGAAGCACAATATT [CACACA_site3690]” it is 8.48 ± 0.79.

With “TGTGTCAAATAATTAATGTCATATATATTTTGTATA [CACACA_negctrl_site1479]”, the “gcPBM binding intensity (ln)” value stood at 7.63 ± 0.37. With “TGCTTATATCTTATAATATTTATACATCATAATAAG [CACACA_negctrl_site629]” the figure was 7.61 ± 0.6. The figure for “GCATATAAAATAAATCGTACATGTAAAACATAATTA [XGTACX_site7077]” is 7.71 ± 0.32. With “TATAATATAATATTTTGTACATATGATAAAAAAAAA [XGTACX_site6858]” the figure was 7.75 ± 0.63. Regarding “ACACATATAAATAAAACATGCATATGTAAATATATA [TGCATGCA_site403]”, the “gcPBM binding intensity (ln)” value amounted to 7.57 ± 0.54. Regarding “TCAAAATGTTACAAATTATGTTGGCTAAAATTTTAA [TGCATGCA_negctrl_site188]”, the “gcPBM binding intensity (ln)” value stood at 7.33 ± 0.67. For “TTGAACCTGATAAATACACACAATATAGATTTTTTT [CACACA_site7091]”, the “gcPBM binding intensity (ln)” value came to 7.46 ± 0.66. Take “AATTATACTCACGTTACACACACACTATATATATAT [CACACA_site9375]”: the “gcPBM binding intensity (ln)” value came to 9.32 ± 0.16.

Consider “AGATATATTTTTTAAATTTAAAAATTATAAAATTTA [CACACA_negctrl_site533]”, for which the “gcPBM binding intensity (ln)” value was determined as 7.52 ± 0.35.

“AAATATATCTTCTTTGCACACTTAAAGGGAAGTGAT [CACACA_site343]”: the “gcPBM binding intensity (ln)” value came out at 9.15 ± 0.085. With “ACAATAATTTCCATCACACATATATTTATATATTAC [CACACA_site6003]”, the “gcPBM binding intensity (ln)” value was 7.87 ± 0.71. Turning to “TTGCATCTACATTTATGTACATATCTTATGATAAAT [XGTACX_site2146]”, the “gcPBM binding intensity (ln)” value worked out at 7.79 ± 0.56. With “ATACATATTCTTATTTGTACTTATTATAAAATGGTC [XGTACX_site6584]” the figure was 7.86 ± 0.21; with “TAACTGATATATAAAACACACATCATAAAAATATAA [CACACA_site6499]”, 7.51 ± 0.47.

On to “TATATATGTATATATTTTATAAGTATGCAAGAAAAT [TGCATGCA_negctrl_site486]”, for which the “gcPBM binding intensity (ln)” value stood at 10.4 ± 0.12. With “ATATTGGAATAAATTTGTACATATATATATTATTCA [XGTACX_site916]” the figure was 7.63 ± 0.47; with “AAAATTTATAAAAGCACACAAAATAAAAAAAAATGA [CACACA_site1491]”, 8.45 ± 0.27. With “TGTACGAGTCGTAGAGTGCAGTCTGGAGAAGAGTAC [GTGCAC_site9684]” the figure was 9.32 ± 0.25; with “TTTTGTTATATACAATAGATCAGAAGAAATGAAGTT [CACACA_negctrl_site1579]”, 8.11 ± 0.5. The figure for “TTATAATATGTATACACACACATATATAAATATATA [CACACA_site2326]” is 7.77 ± 0.38; for “CAATGTTAACATATTACACACATATGTATATAGAAT [CACACA_site2732]” it is 7.95 ± 0.61; for “CTTACGTATTAAGTGTGTCCGTAGTGTTCATAGTTC [XGTACX_site8913]” it is 7.81 ± 0.51. Consider “TTTCAATAATAAAAAACACACACAAAAAAAAATAAT [CACACA_site8905]”, for which the “gcPBM binding intensity (ln)” value was 7.97 ± 0.5.

As for “AAAAATATAAACACCAGTACACAAACCTATAATGGA [XGTACX_site3846]”, the “gcPBM binding intensity (ln)” value is 7.83 ± 0.63. With “AAAGTAAATTTAAGCACACACAACGAATTTTTATAC [CACACA_site1959]” the figure was 8.71 ± 0.16. On to “AATATATGGTTTCATGATATTAAATACAATTTAATG [CACACA_negctrl_site1503]”, for which the “gcPBM binding intensity (ln)” value is 7.38 ± 0.33. The figure for “CTATAATTATGATGAAGTACATATGAGTTCAAAAAA [XGTACX_site3070]” is 8.04 ± 0.41; for “ATATATATATGTATATGTACTTATATTATTGTTTGT [XGTACX_site1466]” it is 8.96 ± 0.2. With “ACATAATGCTAGACACGTACGTACATCCGTGAGGTT [XGTACX_site4156]” the figure was 7.97 ± 0.74; with “GTAAAAGAACGGCATGCATGAAAAATATTACACATG [TGCATGCA_site143]”, 7.93 ± 0.58. The figure for “TTATTATTATATTCTACATGCAGTTTGTGTAGAACA [TGCATGCA_site455]” is 7.81 ± 0.67; for TGAACTCAACAAAGGGTGCATAACAAAAATAGACGT it is 11.4 ± 0.23. Turning to “TAAAATAAAAAGTTTACACACATATATAATTTTAAT [CACACA_site662]”, the “gcPBM binding intensity (ln)” value was determined as 7.55 ± 0.54. On to “GAATTATATAATTAAAGTACATTGTTTATATAATCA [XGTACX_site7246]”, for which the “gcPBM binding intensity (ln)” value amounted to 7.48 ± 0.33.

Take “AACCATTTTAAATATGCACACAGATGCACTAACACA [CACACA_site8565]”: the “gcPBM binding intensity (ln)” value came to 10.52 ± 0.057.

For “ATTTATATGGTTTGCACACATAACAACTATGGTTAT [CACACA_site3632]”, the “gcPBM binding intensity (ln)” value was found to be 8.81 ± 0.4. In the case of “TTTACACGTACGTGTACACACAAAAATATGTTTTTA [CACACA_site995]”, the “gcPBM binding intensity (ln)” value was 8.21 ± 0.18. Turning to “GAAAGAAATAAAGGTGGTACATAAATAAAAACTAAG [XGTACX_site4826]”, the “gcPBM binding intensity (ln)” value was determined as 8.3 ± 0.47. The figure for “AAATTCCACGGACACACACACATATAAATAAATAAA [CACACA_site4811]” is 8.23 ± 0.37; for “TGTAGTCTGGAGAAAAGTACATAGTATCTGGTAGCT [XGTACX_site2031]” it is 8 ± 0.67.
